Assay results taken from PubChem BioAssay AID2451 (National Center for Advancing Translational Sciences (NCATS), 2010).
The whole screen tested about 290,000 compounds, of which about 2,100 (0.72%) were called active. This list was built around the results that the source calls inconclusive (neither active nor inactive); the mix of calls is not that of the screen. Calls come from the whole dose curve; as a rule, active = well fitted inhibition curve with a large enough effect; inconclusive = small, poorly fitted or top-dose-only effect, or effect the other way; inactive = flat fitted curve, though single readings scatter. Where the call is inconclusive, the potency comes from a doubtful curve fit.

biological target: Fructose-bisphosphate aldolase (Giardia intestinalis (strain ATCC 50803 / WB clone C6)) (UniProt A8B2U2); test: qHTS Assay for Inhibitors of Fructose-1,6-bisphosphate Aldolase from Giardia Lamblia; conditions: purified Giardia FBPA; series mostly up to 59.6 µM; note: nearly all actives have a fitted effect of over 55% in size
Chain of UniProt A8B2U2 (A8B2U2 whole entry, looked up): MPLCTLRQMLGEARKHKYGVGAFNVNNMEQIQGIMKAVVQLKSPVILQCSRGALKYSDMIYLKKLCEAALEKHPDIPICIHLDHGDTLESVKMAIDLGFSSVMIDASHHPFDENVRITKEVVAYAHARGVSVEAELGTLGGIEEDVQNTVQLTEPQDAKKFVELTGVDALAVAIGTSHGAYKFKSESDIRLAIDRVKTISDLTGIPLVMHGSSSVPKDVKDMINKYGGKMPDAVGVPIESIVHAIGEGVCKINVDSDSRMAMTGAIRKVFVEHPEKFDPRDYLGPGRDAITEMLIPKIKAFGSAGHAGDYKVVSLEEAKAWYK
Summary of the method: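 40 nM FBPA preincubated 10 min at RT with compound (up to 57.5 uM final), then substrate plus GAPDH/TPI/NAD/arsenate coupling and diaphorase/resazurin added. Fluorescence read after 20 min at RT, 525/598 nm.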
Potency is the fitted concentration of half-maximal effect; tags give direction and shape of the fitted curve.

Structure (SMILES)	Potency
COc1cccc(NC(=O)C2COc3ccccc3O2)c1 (stereo not drawn)	inactive
C=C(C)[C@H]1CN[C@H](C(=O)O)[C@H]1CC(=O)O	inactive
CC(C)OC(=S)N/C(=N\S(=O)(=O)c1ccccc1)c1ccccc1	inconclusive: 3.98 µM [inhibitor, full curve, poor fit]
CCOC(=O)c1[nH]cnc1C(=O)Nc1ccc(Cl)cc1	inactive
Cc1cc(C(=O)COC(=O)c2ccc[nH]c2=O)c(C)n1-c1ccccc1	inactive
CC(C)(C)OC(=O)CNC(=O)c1[nH]cnc1C(=O)NCCCCCNC(=O)OC(C)(C)C	inconclusive: 28.2 µM [inhibitor, partial curve]
COc1ccc(-c2cc(C(=O)NCC3CCCO3)c3cc(C(C)C)ccc3n2)cc1 (stereo not drawn)	inconclusive: 25.1 µM [inhibitor, single point]
CNc1sc(C(=O)c2ccccc2F)c(N)c1-c1nc2ccccc2s1	inactive
O=C(O)[C@@H](c1ccccc1)N1Cc2ccccc2C1=O	inconclusive: 17.7 µM [activator, partial curve]
COc1ccccc1C(=O)Nc1nc(-c2ccc3c(c2)OCCO3)cs1	inactive
Cc1ccc(S(=O)(=O)/N=C2\C=C(Nc3cccc(C(=O)O)c3)C(=O)c3ccccc32)cc1	active: 0.251 µM
CCCC1(C(=O)O)NC(c2cccc(OC)c2O)C2C(=O)N(c3ccccc3)C(=O)C21 (stereo not drawn)	inconclusive: 3.54 µM [inhibitor, partial curve]
O=C(NCc1cccnc1)C1CCCN(Cc2cnn(-c3ccccc3)c2-n2cccc2)C1 (stereo not drawn)	inactive
CC(=C/c1ccccc1)/C=N/n1c(C)n[nH]c1=S	inactive
COc1ccccc1CNCC(=O)Nc1ccc(C#N)cc1	inconclusive: 31.6 µM [inhibitor, partial curve]
COc1ccc(Cc2c3cc(OC)c(OC)cc3cc[n+]2C)cc1OC	inconclusive: 19.9 µM [inhibitor, partial curve]
Cn1c(O)c(C=NC2C(=O)C3(C)CCC2C3(C)C)c(=O)n(C)c1=O (stereo not drawn)	inconclusive: 39.7 µM [activator, single point]
Cc1cc(NC(=O)CCN2CCN(C)CC2)ccc1Br	inconclusive: 12.6 µM [inhibitor, partial curve]
Cc1cc(C)n(-c2ccc([N+](=O)[O-])cc2-c2nn[nH]n2)n1	inconclusive: 19.9 µM [inhibitor, single point]
COc1ccc2cc(C(c3nnnn3Cc3ccc(F)cc3)N3CCCCCC3)c(=O)[nH]c2c1 (stereo not drawn)	inconclusive: 19.9 µM [inhibitor, single point]
Cc1ccn2cc(-c3cccc([N+](=O)[O-])c3)nc2c1	inconclusive: 19.9 µM [inhibitor, partial curve]
Cc1ccccc1Cn1nnc(-c2cccc(C(=O)O)c2)n1	inconclusive: 17.7 µM [activator, single point]
Cc1ccc(/C=C2/SC(=O)NC2=S)o1	inconclusive: 15.8 µM [inhibitor, partial curve]
COc1ccc(-c2nc3cccc(C)n3c2NCc2ccco2)cc1OC	inconclusive: 22.3 µM [inhibitor, single point]

Structure (SMILES)	Potency
COc1ccc(OC)c(S(=O)(=O)NCc2nc3nc(C)cc(C)n3n2)c1	inactive
COc1ccc(NC(=O)CN2CCCC(C)C2)c([N+](=O)[O-])c1 (stereo not drawn)	inactive
c1ccc(N2CCN(CC3CCCCC3)CC2)cc1	inconclusive: 28.2 µM [inhibitor, single point]
COc1cccc(/C=N/Nc2ncnc3scc(-c4ccccc4)c23)c1O	inconclusive: 25.1 µM [activator, single point]
CCc1nnc(N/N=C\c2ccc(OC(C)=O)c(OC)c2)n1N	active: 15.8 µM
COc1cccc(N2CCN(C(=O)c3cc4c(OC)c(OC)c(OC)cc4[nH]3)CC2)c1	inactive
CCOc1ccccc1N1C(=O)NC(=O)/C(=C/c2ccc3c4c(cccc24)CC3)C1=O	inactive
Cc1ccc(NC(=O)CNCc2cccs2)c(Br)c1	inconclusive: 22.4 µM [inhibitor, partial curve]
O=C(CNC(=O)OCc1ccccc1)Oc1cc2oc(=O)cc(-c3ccccc3)c2cc1Cl	inconclusive: 17.7 µM [activator, partial curve]
Cc1cccc(CSC2=NN3CCCC(=O)N=C3S2)c1	inactive
COc1cc(C(O)CO)ccc1OS(=O)(=O)O (stereo not drawn)	inactive
O=C(CN1CCN(C(=O)c2ccco2)CC1)Nc1c2c(nc3c1CCC3)CCCC2	inconclusive: 15.8 µM [inhibitor, partial curve]
O=C1CNC(=O)/C(=C\c2ccc(F)cc2)N1	inactive
Cc1csc2ncc(C(=O)Nc3ccccc3F)c(=O)n12	inactive
CC(=O)N(CC(O)CN(C(C)=O)c1c(I)c(C(=O)NC[C@@H](O)CO)c(I)c(C(=O)NC[C@@H](O)CO)c1I)c1c(I)c(C(=O)NC[C@@H](O)CO)c(I)c(C(=O)NC[C@@H](O)CO)c1I	inactive
COc1cc(CN2CCCCCC2)cc([N+](=O)[O-])c1O	inconclusive: 22.4 µM [inhibitor, partial curve]
CSCC[C@H](NC(=O)COc1ccc(Cl)cc1)C(=O)N1CCC2(CC1)NCCc1[nH]cnc12	inconclusive: 28.2 µM [inhibitor, single point]
CN(Cc1ccccc1)C1CCNCC1	inconclusive: 28.2 µM [inhibitor, single point]
CCOC(=O)c1ccc(NC(=O)N2CCN(Cc3ccccc3)CC2)cc1	inactive
O=C(Nc1ccccc1-c1ccccc1)C1CCCCC1	inactive
CC(Cc1ccccc1)NCC(=O)Nc1cc(N(C)C)nc2ccccc12 (stereo not drawn)	inconclusive: 12.6 µM [inhibitor, partial curve]
COc1ccccc1CNc1cc(-c2cccc(C#N)c2)ncn1	inactive
COc1ccccc1CNc1ncnc2nc[nH]c12	inactive
CCOC(=O)C1=C(c2ccc(OC)cc2)C(=O)c2ccccc2C1=O	inconclusive: 0.354 µM [inhibitor, partial curve]
